According to publication PMC9759531, “USP5-Beclin 1 axis overrides p53-dependent senescence and drives Kras-induced tumorigenicity” (Nature Communications, 2022):
Results are given in words; binding and its absence hold for the method and conditions named. For some of these results: In cells and extracts the contact can be indirect. Some binding calls cover weakened binding; strength is not graded here.

Chains of the proteins cited; added tags and fusions are not shown. Lines headed by an entry give the natural chain unless they say otherwise; changes in a name come on top.
UniProt Q14457: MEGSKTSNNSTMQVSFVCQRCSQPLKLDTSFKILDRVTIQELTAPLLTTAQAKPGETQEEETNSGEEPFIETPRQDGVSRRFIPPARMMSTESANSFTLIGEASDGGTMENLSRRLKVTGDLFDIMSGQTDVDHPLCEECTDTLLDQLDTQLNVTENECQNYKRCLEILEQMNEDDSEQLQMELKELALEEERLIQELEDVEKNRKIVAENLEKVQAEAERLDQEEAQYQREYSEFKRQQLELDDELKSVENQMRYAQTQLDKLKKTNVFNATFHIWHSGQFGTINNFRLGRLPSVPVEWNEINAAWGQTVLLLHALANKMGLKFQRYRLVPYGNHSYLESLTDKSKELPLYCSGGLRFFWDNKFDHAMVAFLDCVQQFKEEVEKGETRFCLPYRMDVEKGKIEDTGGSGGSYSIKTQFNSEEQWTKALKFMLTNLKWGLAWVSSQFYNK
UniProt P45974: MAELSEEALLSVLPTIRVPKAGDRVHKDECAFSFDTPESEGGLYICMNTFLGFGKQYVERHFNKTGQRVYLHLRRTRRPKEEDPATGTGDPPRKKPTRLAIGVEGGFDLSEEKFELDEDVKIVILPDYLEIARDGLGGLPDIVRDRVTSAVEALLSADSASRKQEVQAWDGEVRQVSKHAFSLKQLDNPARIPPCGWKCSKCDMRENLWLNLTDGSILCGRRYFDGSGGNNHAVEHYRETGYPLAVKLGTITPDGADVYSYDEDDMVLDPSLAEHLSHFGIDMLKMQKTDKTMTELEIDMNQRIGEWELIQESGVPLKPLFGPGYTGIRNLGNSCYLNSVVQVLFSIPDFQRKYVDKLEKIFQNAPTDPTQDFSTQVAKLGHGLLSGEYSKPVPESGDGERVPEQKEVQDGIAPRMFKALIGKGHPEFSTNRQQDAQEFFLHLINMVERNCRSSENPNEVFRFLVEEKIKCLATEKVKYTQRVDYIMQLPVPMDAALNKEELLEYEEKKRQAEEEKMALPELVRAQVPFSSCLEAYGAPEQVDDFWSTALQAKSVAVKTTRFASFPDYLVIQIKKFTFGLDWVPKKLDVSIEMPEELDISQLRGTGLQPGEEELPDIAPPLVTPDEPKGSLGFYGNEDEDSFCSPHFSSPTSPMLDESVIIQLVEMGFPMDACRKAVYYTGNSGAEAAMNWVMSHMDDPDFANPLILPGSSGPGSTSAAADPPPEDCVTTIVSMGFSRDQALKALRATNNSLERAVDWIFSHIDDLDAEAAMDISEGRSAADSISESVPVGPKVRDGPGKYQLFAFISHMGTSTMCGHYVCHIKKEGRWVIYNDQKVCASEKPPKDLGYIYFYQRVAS
UniProt Q00987: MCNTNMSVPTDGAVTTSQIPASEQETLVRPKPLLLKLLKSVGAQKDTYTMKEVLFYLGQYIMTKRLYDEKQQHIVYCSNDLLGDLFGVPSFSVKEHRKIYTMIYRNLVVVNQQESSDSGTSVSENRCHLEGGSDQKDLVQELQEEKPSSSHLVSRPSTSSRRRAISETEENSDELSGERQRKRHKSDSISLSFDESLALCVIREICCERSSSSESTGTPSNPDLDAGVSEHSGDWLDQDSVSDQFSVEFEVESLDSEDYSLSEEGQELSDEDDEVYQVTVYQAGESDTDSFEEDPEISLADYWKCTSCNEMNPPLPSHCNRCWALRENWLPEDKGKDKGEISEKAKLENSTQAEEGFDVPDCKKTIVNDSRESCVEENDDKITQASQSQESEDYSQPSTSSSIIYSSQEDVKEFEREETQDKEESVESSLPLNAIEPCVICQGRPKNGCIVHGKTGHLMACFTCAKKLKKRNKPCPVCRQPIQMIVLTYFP

Legend:
[1] = molecular target: Beclin 1 (endogenous) (human (endogenous in A549)) (UniProt Q14457); assay: co-IP; endogenous proteins in A549 (Fig. 2d, 4m) or A549/H292 lysates (Fig. 4p, with shBeclin 1 knock-down); IP lysis buffer 20 mM Tris-HCl, 125 mM NaCl, 5 mM MgCl2, 0.2 mM EDTA, 12% glycerol, 0.25% NP-40; primary antibodies 6 h at 4 °C, then protein A/G beads 2 h; western blot
[2] = molecular target: USP5 (endogenous) (human (endogenous in A549 and H292)) (UniProt P45974); assay: condition: only cells treated with 5 mM NAC for 24 h; SDS-PAGE without DTT (non-reducing) and western blot; total lysates of H292-KRAS^G12V cells treated with 5 mM NAC for 24 h; SDS-PAGE with or without DTT (100 mM) in the loading buffer
[3] = molecular target: USP5 (endogenous) (human (endogenous in A549 and H292)) (UniProt P45974); assay: SDS-PAGE without DTT (non-reducing) and western blot; total lysates of H292-KRAS^G12V cells, or of A549 cells treated with H2O2 for 10 min; SDS-PAGE with or without DTT (100 mM) in the loading buffer; slower-migrating USP5 band without DTT read as disulfide-linked dimer
Flag-Beclin 1 (FL) = Flag-Beclin 1 (FL) (UniProt Q14457); assay: co-IP; 293FT cells transfected with tagged constructs; anti-HA/Flag beads added to total lysate for 6 h; western blot; 20 μM MG132 before harvest in Fig. 4t
[4] = molecular target: His-USP5^C195A (purified recombinant) (human) (UniProt P45974); assay: SEC; 1 mg purified His-USP5 or His-USP5^C195A in 200 μL treated with 1 mM H2O2 for 10 min on ice, loaded on Superdex 200 increase 10/300 GL at 4 °C; peaks of dimers and monomers collected; both purified
[5] = molecular target: His-USP5^C195A (purified recombinant) (human) (UniProt P45974); assay: SDS-PAGE without DTT (non-reducing) and western blot; purified recombinant His-USP5 or His-USP5^C195A in PBS treated with H2O2 for 10 min; SDS-PAGE with or without DTT (Fig. 5g, Supplementary Fig. S5e); western blot of H2O2-treated protein (Fig. 5k); both purified
[6] = molecular target: USP5-HA (stably expressed in H292-KRAS^G12V or A549) (human) (UniProt P45974); assay: SDS-PAGE without DTT (non-reducing) and western blot; total lysates of H292-KRAS^G12V cells, or of A549 cells treated with H2O2 for 10 min; SDS-PAGE with or without DTT (100 mM) in the loading buffer; slower-migrating USP5 band without DTT read as disulfide-linked dimer
[7] = molecular target: USP5^C195A-HA (stably expressed in H292-KRAS^G12V or A549) (human) (UniProt P45974); assay: as above

USP5 (endogenous) (from UniProt P45974 1-858) (enzyme)
binding [1]: binds | binding [2]: no binding | binding [3]: binds

MDM2 (endogenous) (from UniProt Q00987 1-491) (enzyme)
binding [1]: binds

MDM2-HA (FL) (from UniProt Q00987 1-491) (enzyme)
binding (Flag-Beclin 1 (FL)): binds

His-USP5^C195A (purified recombinant) (from UniProt P45974 1-858) (enzyme)
binding [4]: no binding (tested: 1 mg in 200 μL) | binding [5]: no binding

USP5-HA (293FT) (from UniProt P45974 1-858) (enzyme)
binding (Flag-Beclin 1 (FL)): binds

USP5-HA (stably expressed in H292-KRAS^G12V or A549) (from UniProt P45974 1-858) (enzyme)
binding [6]: binds

USP5^C195A-HA (stably expressed in H292-KRAS^G12V or A549) (from UniProt P45974 1-858) (enzyme)
binding [7]: no binding
